Assay results published in paper PMC4336329 (PLoS ONE, 2015).
The whole screen tested about 310,000 compounds, of which about 2,200 (0.71%) showed an effect of 50% or more. Effects have a minus sign here. This is one part of the list.

biological target: human ether-à-go-go-related gene (hERG) potassium channel (human, UniProt Q12809); experiment: primary screen, population patch clamp on CHO cells stably expressing hERG
Sequence (Q12809 whole entry, looked up): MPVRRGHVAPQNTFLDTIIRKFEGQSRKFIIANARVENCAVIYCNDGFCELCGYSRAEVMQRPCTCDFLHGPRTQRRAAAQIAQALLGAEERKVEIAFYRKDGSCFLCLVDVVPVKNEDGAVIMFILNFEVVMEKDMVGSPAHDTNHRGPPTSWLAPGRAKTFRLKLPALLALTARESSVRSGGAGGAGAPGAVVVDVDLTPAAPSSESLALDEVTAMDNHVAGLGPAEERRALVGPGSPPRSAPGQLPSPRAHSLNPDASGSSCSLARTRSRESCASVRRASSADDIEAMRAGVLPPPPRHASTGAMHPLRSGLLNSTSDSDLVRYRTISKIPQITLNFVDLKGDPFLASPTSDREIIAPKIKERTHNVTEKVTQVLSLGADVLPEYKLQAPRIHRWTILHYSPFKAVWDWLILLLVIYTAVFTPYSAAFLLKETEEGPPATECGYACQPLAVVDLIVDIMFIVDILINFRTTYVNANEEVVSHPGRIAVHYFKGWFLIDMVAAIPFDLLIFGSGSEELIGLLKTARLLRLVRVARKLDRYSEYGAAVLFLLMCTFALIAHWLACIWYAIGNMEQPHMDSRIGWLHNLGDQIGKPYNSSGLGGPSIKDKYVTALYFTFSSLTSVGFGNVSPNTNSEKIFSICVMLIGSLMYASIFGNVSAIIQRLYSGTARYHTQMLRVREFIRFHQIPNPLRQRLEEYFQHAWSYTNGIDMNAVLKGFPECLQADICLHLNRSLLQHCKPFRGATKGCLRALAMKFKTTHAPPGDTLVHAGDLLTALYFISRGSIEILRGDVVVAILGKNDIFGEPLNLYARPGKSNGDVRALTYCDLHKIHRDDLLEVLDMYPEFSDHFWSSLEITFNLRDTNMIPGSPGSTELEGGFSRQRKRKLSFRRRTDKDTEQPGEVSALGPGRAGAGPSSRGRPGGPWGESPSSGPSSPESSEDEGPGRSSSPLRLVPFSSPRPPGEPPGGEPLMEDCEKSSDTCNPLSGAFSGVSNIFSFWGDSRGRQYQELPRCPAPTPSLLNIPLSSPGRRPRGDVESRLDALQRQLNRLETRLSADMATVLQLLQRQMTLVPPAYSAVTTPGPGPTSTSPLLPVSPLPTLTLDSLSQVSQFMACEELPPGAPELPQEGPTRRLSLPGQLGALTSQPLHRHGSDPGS

In order of rising “hERG current change (%, negative = inhibition) at 1uM” value:
1. CCCCN(CCCC)CCCNC(=O)C1CC(c2ccc(C(F)(F)F)cc2)=NO1 (stereo not shown)  -35.8%
2. Cc1ccccc1Cn1cc(NC(=O)c2cc(-c3cccs3)on2)cn1  -11.3%
3. O=C(CON=C1c2ccccc2-c2ccccc21)NC12CC3CC(CC(C3)C1)C2  -5.98%
4. O=C(N1CCCCC1)N1CCN(S(=O)(=O)c2ccc(Cl)cc2)CC1  -4.28%
5. CCc1nn(C(CC)C(=O)NCCc2ccc(OC)cc2OC)c(=O)c2cc3occc3n12 (stereo not shown)  -3.52%
6. CCCCN(C(=O)c1ccc(-c2ccc([N+](=O)[O-])cc2)o1)c1c(N)n(CC(C)C)c(=O)[nH]c1=O  -3.02%
7. COc1ccc2[nH]c3c(c2c1)CCn1c-3nc2ccccc2c1=O  -2.24%
8. COc1ccc(Cc2nnc(SCC(=O)NC(C)c3ccccc3)o2)cc1 (stereo not shown)  -1.25%
9. O=C(CN(C(=O)c1csnn1)c1ccc2c(c1)OCCO2)NCc1ccc(F)cc1  -1.13%
10. Cc1nc(SCc2ccc([N+](=O)[O-])cc2)nc2ccccc12  0.713%
11. CCOc1ccc(OCc2ccc(C(=O)N3CCc4ccccc4C3)o2)cc1  1.11%
12. COc1cc(OC)c(OC)cc1/C=C1\Oc2cc(OCC(=O)N3Cc4ccccc4C[C@H]3C(=O)O)ccc2C1=O  1.72%
13. COc1cccc(Oc2ccc(S(=O)(=O)N3CCCC3)cc2[N+](=O)[O-])c1  1.74%
14. COc1ccc(C)cc1S(=O)(=O)N(C)CC(=O)NC1CCCC1  1.79%
15. O=[N+]([O-])c1nn(-c2ccccc2)[n+]([O-])c1N1CCN(c2ccccc2)CC1  2.54%
16. O=C(Nc1ccc2c(c1)OCCO2)C1CCCN(S(=O)(=O)Cc2ccccc2)C1 (stereo not shown)  2.91%
17. CCOC(=O)CN(C(=O)COc1ccc2c(C)cc(=O)oc2c1)c1ccc(OCC)cc1  4.72%
18. CCOC(=O)C1=C(C)N=c2s/c(=C/c3cccc([N+](=O)[O-])c3O)c(=O)n2C1c1cc(OC)c(OC)c(OC)c1 (stereo not shown)  4.73%
19. O=C(NCC1CCCO1)C1CCN(c2ccc(S(=O)(=O)N3CCCC3)cc2)CC1 (stereo not shown)  4.81%
20. O=C(COS(=O)c1ccccc1)Nc1cc(Cl)ccc1N1CCOCC1 (stereo not shown)  4.99%
21. CC1=CC(=O)C=C(C)C1=NOC(=O)c1cccc([N+](=O)[O-])c1  5.05%
22. O=C(CCCCl)Oc1ccc2cc(-c3ccc4ccccc4n3)c(=O)oc2c1  5.05%
23. COCCN(CCOC)C(=S)Nc1cc(S(=O)(=O)N(C)C)ccc1C  5.53%
24. Cc1ccc(C(=O)CN2C(=O)C(=O)N(Cc3ccccc3)C2=O)cc1  7.02%
25. Cc1cc(C)n(-c2ncnc3c2oc2ccccc23)n1  7.51%
26. O=C(Cn1ncn2c(cc3cc(F)ccc32)c1=O)N1CCC2(CC1)OCCO2  8%
27. Cc1ccc(S(=O)(=O)NC(=O)Nc2ccc(F)cc2)cc1  8.58%
28. COCc1ccc(C(=O)N2CCCC(C(=O)c3ccc(Cl)cc3C)C2)o1 (stereo not shown)  8.63%
29. COc1ccc(N(C(=O)c2cccnc2)S(=O)(=O)c2ccc3c4c(cccc24)C(=O)N3C)cc1  8.72%
30. COc1ccc(/C=C2\CCCc3c2nc2ccccc2c3C(=O)O)cc1OC  8.75%
31. CC1CN(C(=O)CSc2nnc(NC(=O)NC(C)(C)C)s2)CC(C)O1 (stereo not shown)  10.2%
32. CCOC(=O)C1=C(C)NC(C)=C(C(=O)OCC)C1c1sccc1C  10.8%
33. COc1cc(CCC(=O)OCC(=O)NC(=O)c2ccc(Cl)cc2)cc(OC)c1OC  11.6%
34. Cc1ccc2nc(SCC(=O)Nc3ccc4sc(C)nc4c3)c(C#N)cc2c1  12.1%
35. CC(=O)c1c(C)[nH]c(C(=O)Nc2cc(S(=O)(=O)N(C)C)ccc2C)c1C  14%
36. Nc1nnc(CC(=O)N/N=C\c2cc([N+](=O)[O-])ccc2O)s1  15.4%
37. CCOCC(=O)Nc1cc(OC)c(Cl)cc1OC  15.8%
38. S=c1[nH]nc2c3c4c(sc3ncn12)CCCC4  17.3%
39. CC(C(=O)[O-])c1ccc(CC2CCCC2=O)cc1.[Na+] (stereo not shown)  18.6%
40. O=C(CN1C(=O)NC2(CCCCC2)C1=O)N1CCN(S(=O)(=O)c2ccc(Cl)s2)CC1  19.2%
41. Cc1cccc[n+]1CC(=O)Nc1ccc([N+](=O)[O-])cc1Cl.[Cl-]  19.3%
42. FC(F)C(F)(F)c1cc(-c2ccc(Cl)cc2)n[nH]1  23.1%
43. CCN(c1ccccc1)S(=O)(=O)c1ccc(Oc2ccc(C(C)=O)cc2OC)nc1  26%
